We go through 5 molecules from publication PMC8115599, “Mechanism of MRX inhibition by Rif2 at telomeres” (Nature Communications, 2021).

Experiment in all cases: two-hybrid; strain Y190, growth on synthetic glucose plates with adenine and 3-AT (25 and 50 mM); Gal4DBD-Rif2 fragments against pACT2-RAD50 and its derivatives, Rap1 366-827 or Mre11; WT cells, also cells lacking Mre11 and Xrs2 or the endogenous Rad50
Assay [1] addresses T1, full-length Mre11 (S. cerevisiae) (UniProt P32829).
T1 sequence: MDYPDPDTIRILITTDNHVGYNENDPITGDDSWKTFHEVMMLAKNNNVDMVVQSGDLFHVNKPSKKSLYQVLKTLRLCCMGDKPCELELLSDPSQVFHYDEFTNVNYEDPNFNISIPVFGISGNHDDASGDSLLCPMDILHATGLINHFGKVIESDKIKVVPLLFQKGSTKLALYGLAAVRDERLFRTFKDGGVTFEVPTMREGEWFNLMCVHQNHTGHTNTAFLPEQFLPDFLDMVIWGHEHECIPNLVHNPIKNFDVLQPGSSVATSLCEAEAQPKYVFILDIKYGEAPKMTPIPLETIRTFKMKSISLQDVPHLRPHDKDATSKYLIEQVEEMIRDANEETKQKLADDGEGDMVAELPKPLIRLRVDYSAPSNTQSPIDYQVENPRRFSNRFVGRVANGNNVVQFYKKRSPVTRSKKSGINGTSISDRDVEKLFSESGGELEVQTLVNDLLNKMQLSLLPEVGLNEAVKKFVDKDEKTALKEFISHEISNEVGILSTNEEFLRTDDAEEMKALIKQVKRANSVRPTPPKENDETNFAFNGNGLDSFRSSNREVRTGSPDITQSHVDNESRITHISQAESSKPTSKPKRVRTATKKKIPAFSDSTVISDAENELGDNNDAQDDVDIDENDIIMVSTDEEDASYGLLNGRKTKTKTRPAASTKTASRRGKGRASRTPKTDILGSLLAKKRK

For assay [2], the target named is T2, Gal4DBD-Rif2_(1-36) (Rif2 BAT motif) (S. cerevisiae) (UniProt Q06208).
T2 sequence: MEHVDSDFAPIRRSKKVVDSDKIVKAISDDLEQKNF

In assay [3] the target is T3, Gal4DBD-Rif2_(1-60) (Rif2 N-terminal region 1-60) (S. cerevisiae) (UniProt Q06208).
T3 sequence: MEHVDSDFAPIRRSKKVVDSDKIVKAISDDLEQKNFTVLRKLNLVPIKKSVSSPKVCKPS

The target in assay [4] is T4, Gal4DBD-Rif2_(1-60) L44A (S. cerevisiae) (UniProt Q06208).
T4 sequence: T3 sequence with L44A

Assay [5] has as its target T5, Gal4DBD-Rif2 minimal active motif of 26 residues (1-26) (S. cerevisiae) (UniProt Q06208).
T5 sequence: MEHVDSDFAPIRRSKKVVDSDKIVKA

In assay [6] the target is T6, Gal4DBD-Rif2_(1-60) F8A (S. cerevisiae) (UniProt Q06208).
T6 sequence: T3 sequence with F8A

Assay [7] has as its target T7, Gal4DBD-Rif2_(1-60) R12A (S. cerevisiae) (UniProt Q06208).
T7 sequence: T3 sequence with R12A

Residue numbers refer to the chain shown, from its start. Names and notes keep the numbering of the source. These are yes or no findings as the source states them, for the method shown. Some entries that bind do so weakly or less than the wild type.

B1: full-length Rad50 (pACT2-RAD50) (protein, UniProt P12753 1-1312)
chain: MSAIYKLSIQGIRSFDSNDRETIEFGKPLTLIVGMNGSGKTTIIECLKYATTGDLPPNSKGGVFIHDPKITGEKDIRAQVKLAFTSANGLNMIVTRNIQLLMKKTTTTFKTLEGQLVAINNSGDRSTLSTRSLELDAQVPLYLGVPKAILEYVIFCHQEDSLWPLSEPSNLKKKFDEIFQAMKFTKALDNLKSIKKDMSVDIKLLKQSVEHLKLDKDRSKAMKLNIHQLQTKIDQYNEEVSEIESQLNEITEKSDKLFKSNQDFQKILSKVENLKNTKLSISDQVKRLSNSIDILDLSKPDLQNLLANFSKVLMDKNNQLRDLETDISSLKDRQSSLQSLSNSLIRRQGELEAGKETYEKNRNHLSSLKEAFQHKFQGLSNIENSDMAQVNHEMSQFKAFISQDLTDTIDQFAKDIQLKETNLSDLIKSITVDSQNLEYNKKDRSKLIHDSEELAEKLKSFKSLSTQDSLNHELENLKTYKEKLQSWESENIIPKLNQKIEEKNNEMIILENQIEKFQDRIMKTNQQADLYAKLGLIKKSINTKLDELQKITEKLQNDSRIRQVFPLTQEFQRADLEMDFQKLFINMQKNIAINNKKMHELDRRYTNALYNLNTIEKDLQDNQKSKEKVIQLLSENLPEDCTIDEYNDVLEETELSYKTALENLKMHQTTLEFNRKALEIAERDSCCYLCSRKFENESFKSKLLQELKTKTDANFEKTLKDTVQNEKEYLHSLRLLEKHIITLNSINEKIDNSQKCLEKAKEETKTSKSKLDELEVDSTKLKDEKELAESEIRPLIEKFTYLEKELKDLENSSKTISEELSIYNTSEDGIQTVDELRDQQRKMNDSLRELRKTISDLQMEKDEKVRENSRMINLIKEKELTVSEIESSLTQKQNIDDSIRSKRENINDIDSRVKELEARIISLKNKKDEAQSVLDKVKNERDIQVRNKQKTVADINRLIDRFQTIYNEVVDFEAKGFDELQTTIKELELNKAQMLELKEQLDLKSNEVNEEKRKLADSNNEEKNLKQNLELIELKSQLQHIESEISRLDVQNAEAERDKYQEESLRLRTRFEKLSSENAGKLGEMKQLQNQIDSLTHQLRTDYKDIEKNYHKEWVELQTRSFVTDDIDVYSKALDSAIMKYHGLKMQDINRIIDELWKRTYSGTDIDTIKIRSDEVSSTVKGKSYNYRVVMYKQDVELDMRGRCSAGQKVLASIIIRLALSETFGANCGVIALDEPTTNLDEENIESLAKSLHNIINMRRHQKNFQLIVITHDEKFLGHMNAAAFTDHFFKVKRDDRQKSQIEWVDINRVTY
As for B1, the binding entry in assay [1], in assay [2], in assay [3], in assay [4] and in assay [5] was “binds” throughout.

B2: mutant full-length Rad50 T95L (protein, UniProt P12753 1-1312)
chain: B1 chain with T95L
For B2, the binding result in assay [1] and in assay [2] was “binds” in each case.

B3: mutant full-length Rad50 S8L (protein, UniProt P12753 1-1312)
chain: B1 chain with S8L
Take B3: the binding entry in assay [1] and in assay [2] was “binds” in each case.

B4: Rad50∆CC (Rad50_(1–189-KILCY-1125-1312)), two-hybrid clone (domain or fragment, UniProt P12753 1-189; P12753 1125-1312)
chain: MSAIYKLSIQGIRSFDSNDRETIEFGKPLTLIVGMNGSGKTTIIECLKYATTGDLPPNSKGGVFIHDPKITGEKDIRAQVKLAFTSANGLNMIVTRNIQLLMKKTTTTFKTLEGQLVAINNSGDRSTLSTRSLELDAQVPLYLGVPKAILEYVIFCHQEDSLWPLSEPSNLKKKFDEIFQAMKFTKALDKILCYDDIDVYSKALDSAIMKYHGLKMQDINRIIDELWKRTYSGTDIDTIKIRSDEVSSTVKGKSYNYRVVMYKQDVELDMRGRCSAGQKVLASIIIRLALSETFGANCGVIALDEPTTNLDEENIESLAKSLHNIINMRRHQKNFQLIVITHDEKFLGHMNAAAFTDHFFKVKRDDRQKSQIEWVDINRVTY
Consider B4, for which, in assay [2], the binding result is given as “binds”.

B5: Rap1 (fragment 366–827) (domain or fragment, UniProt P11938 366-827)
chain: EEDEFILDVVRKNPTRRTTHTLYDEISHYVPNHTGNSIRHRFRVYLSKRLEYVYEVDKFGKLVRDDDGNLIKTKVLPPSIKRKFSADEDYTLAIAVKKQFYRDLFQIDPDTGRSLITDEDTPTAIARRNMTMDPNHVPGSEPNFAAYRTQSRRGPIAREFFKHFAEEHAAHTENAWRDRFRKFLLAYGIDDYISYYEAEKAQNREPEPMKNLTNRPKRPGVPTPGNYNSAAKRARNYSSQRNVQPTANAASANAAAAAAAAASNSYAIPENELLDEDTMNFISSLKNDLSNISNSLPFEYPHEIAEAIRSDFSNEDIYDNIDPDTISFPPKIATTDLFLPLFFHFGSTRQFMDKLHEVISGDYEPSQAEKLVQDLCDETGIRKNFSTSILTCLSGDLMVFPRYFLNMFKDNVNPPPNVPGIWTHDDDESLKSNDQEQIRKLVKKHGTGRMEMRKRFFEKDLL
Consider B5, for which the binding result in assay [6] is “binds”; in assay [7], “binds”; in assay [3] it was “binds”; in assay [4], “no binding”.
